Measurements taken from PubChem BioAssay AID2675 (National Center for Advancing Translational Sciences (NCATS), 2010).
About 100 (0.036%) of roughly 280,000 compounds were called active. The inconclusive results got no clear call from the source; some entries with a clear call stand among them for comparison. Calls follow the shape of the dose curve; as a rule, active = well fitted inhibition curve with a large enough effect in the signal ratio, with a control signal flat (not every such curve was filed as active); inconclusive = small, poorly fitted or top-dose-only effect, or effect the other way, or a change in a side signal; inactive = no such curve, though single readings can be large or run the other way; the % refers to the signal ratio. Where the call is inconclusive, the potency comes from a doubtful curve fit. A note “side channel” means that the fit belongs to a control or component signal, not to the main read-out.

These compounds were tested against Muscleblind-like protein 1 (Homo sapiens) (UniProt Q9NR56) (assay: qHTS Assay for Inhibitors of MBNL1-poly(CUG) RNA binding). Conditions: TR-FRET MBNL1-His/biotin-(CUG)12 binding, 665/545 ratio; series mostly up to 57.5 µM.
UniProt Q9NR56, sequence (Q9NR56 whole entry, looked up): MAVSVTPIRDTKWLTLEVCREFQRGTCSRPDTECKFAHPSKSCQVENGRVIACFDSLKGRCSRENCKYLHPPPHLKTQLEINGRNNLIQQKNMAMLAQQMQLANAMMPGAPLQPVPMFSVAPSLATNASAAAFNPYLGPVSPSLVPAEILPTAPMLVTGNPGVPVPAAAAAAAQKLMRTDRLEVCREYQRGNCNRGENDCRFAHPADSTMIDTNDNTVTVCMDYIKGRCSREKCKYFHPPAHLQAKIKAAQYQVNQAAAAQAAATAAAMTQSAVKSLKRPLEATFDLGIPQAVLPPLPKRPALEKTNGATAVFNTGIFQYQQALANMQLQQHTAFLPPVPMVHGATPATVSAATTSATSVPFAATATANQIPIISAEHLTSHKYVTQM
Method in brief: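 Ratiometric TR-FRET (665 over 545 nm, excitation 340 nm) tracks disruption of MBNL1-His/biotin-(CUG)12 complex after 60 min at room temperature, with compounds at 92 nM to 58 uM final.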
Potency is read from the fitted curve at half-maximal effect; tags tell the direction and shape of the fitted curve or compound fluorescence and quenching.

Structure (SMILES) | Potency
CCc1cc(OCCN(C)C)ccc1Cl | inactive
O=C1c2ccc(Oc3ccc([N+](=O)[O-])cc3)cc2C(=O)N1CCO | inconclusive: 14.1 µM [quencher, side channel, partial curve]
Cc1ccc2nc(-c3ccc(NC(=O)COC(=O)c4cncc(Br)c4)cc3)sc2c1 | inactive
NC(=O)c1ccc(-c2nnc(Nc3ccc(S(N)(=O)=O)cc3)c3ccccc23)cc1 | inconclusive: 15.8 µM [quencher, side channel, partial curve]
Cc1ccccc1CS(=O)(=O)c1nnc([C@H](Cc2ccccc2)NC(=O)OC(C)(C)C)o1 | inactive
NC(=O)c1cc([N+](=O)[O-])ccc1NCc1cccnc1 | inconclusive: 15.8 µM [quencher, partial curve]
CN1c2ccccc2C(O)=C(C(=S)Nc2ccccc2)S1(=O)=O | inactive
O=C(CSc1ccc2ccccc2c1)NC1CCCc2ccccc21 (stereo not given) | inconclusive: 35.5 µM [fluorescent, side channel, single point]
O=C(COc1ccc(Cl)cc1[N+](=O)[O-])N1CCCCC1 | inconclusive: 28.2 µM [quencher, side channel, single point]
Cc1cccc(Nc2cc(=O)n(C)c(=O)[nH]2)c1 | inconclusive: 63.1 µM [inhibitor, single point]
COc1ccc(OC)c(N/C=C/C(=O)c2ccc(OC)c(OC)c2)c1 | inconclusive: 8.91 µM [quencher, side channel, full curve, poor fit]
N#Cc1c(/N=C/c2ccccc2)oc(-c2ccccc2)c1-c1ccccc1 | inconclusive: 20 µM [activator, partial curve]
CCS(=O)(=O)Nc1ccc(C2=NN(C(=O)c3ccco3)C(c3ccc(C)cc3)C2)cc1 (stereo not given) | inconclusive: 20 µM [quencher, side channel, single point]
Cc1cccc(CN2C(=O)/C(=C\c3ccc(C(=O)NCCN4CCOCC4)cc3)Sc3ccccc32)c1 | inactive
Cc1cc(C)cc(N(CC(=O)NC2CCCC2)C(=O)CNC(=O)c2cccs2)c1 | inactive
CC(C)C(=O)Nc1cccc(C(=O)Nc2nnc(C(C)C)s2)c1 | inconclusive: 8.91 µM [quencher, side channel, single point]
O=[N+]([O-])c1ccc(Cc2nnc(-c3ccc(F)cc3)o2)cc1 | inconclusive: 4.47 µM [quencher, side channel, partial curve, poor fit]
NC(=O)NCCCC(=O)OCC(=O)c1ccc2ccccc2c1 | inconclusive: 14.1 µM [quencher, side channel, partial curve]
Cc1ccc(Nc2ccc(NCc3ccccc3)nn2)cc1C | inconclusive: 14.1 µM [quencher, side channel, partial curve, poor fit]
COc1ccc(CNC(=O)C(C)c2ccc([N+](=O)[O-])cc2)cc1 (stereo not given) | inconclusive: 22.4 µM [quencher, side channel, single point]

Structure (SMILES) | Potency
COc1cc(OC)cc(C(=O)NC2CC3CCC(C2)N3Cc2ccco2)c1 (stereo not given) | inactive
Cc1noc(C)c1COC(=O)c1ccc2c(c1)S(=O)(=O)c1ccccc1C2=O | inconclusive: 3.16 µM [quencher, side channel, full curve]
COc1ccc(C[C@H]2CN3C(=NC[C@H]3Cc3ccccc3)N2CCNC(=O)c2ccc(C)c(Br)c2)cc1 | inactive
COc1ccc(C)cc1NC(=S)N1CCN(c2ccccn2)CC1 | inconclusive: 0.1 µM [fluorescent, side channel, full curve]
COc1cccc(/C=N/NC(=O)c2cnccn2)c1O | inconclusive: 28.2 µM [quencher, side channel, single point]
O=C(N/N=C/C=C/c1ccccc1)c1cc(C2CC2)[nH]n1 | inconclusive: 12.6 µM [quencher, side channel, partial curve]
CCCc1cc(=O)n2[nH]c(-c3cc(OC)c(OC)c(OC)c3)nc2n1 | inconclusive: 3.55 µM [quencher, side channel, single point]
O=C1C(=O)N(CCS(=O)(=O)c2ccccc2)c2ccccc21 | inconclusive: 39.8 µM [quencher, side channel, single point]
COc1ccc2nc(COC(=O)c3cccs3)c(C(C)=O)[n+]([O-])c2c1 | inconclusive: 25.1 µM [quencher, side channel, partial curve]
CCCn1nc(NC(=O)C2CCCO2)c2cc3ccc(C)cc3nc21 (stereo not given) | inactive
CCC(C)(C)n1nnnc1C(c1ccc(OC)c(OC)c1)N1CCN(c2ccc(F)cc2)CC1 (stereo not given) | inconclusive: 126 µM [inhibitor, single point]
CC1=C(c2ccc(C(C)C)cc2)S(=O)(=O)N=C1N1CCN(C(=O)c2ccco2)CC1 | inactive
CC(=O)NC/C(C)=N\Nc1ccc([N+](=O)[O-])cc1 | inconclusive: 14.1 µM [quencher, side channel, partial curve]
O=C(NCC1CCCO1)C1CCCN1C(=O)Nc1ccccc1[N+](=O)[O-] (stereo not given) | inconclusive: 25.1 µM [quencher, side channel, partial curve]
Cc1ccc(C2C3=C(CCCC3=O)N=C3c4ccccc4C(=O)C32)cc1 (stereo not given) | inconclusive: 28.2 µM [quencher, side channel, partial curve]
CN(c1ccccc1)c1ccc(/C=N/N2CCOCC2)cc1 | inconclusive: 39.8 µM [quencher, side channel, single point]
c1ccc(-c2c3ccccc3nc3[nH]c4ccccc4c23)cc1 | inactive
Cn1c(N2CCN(S(=O)(=O)c3ccc(Cl)cc3)CC2)nc2ccccc21 | inactive
Cc1cc(NC(=O)CCCN2C(=O)c3cccc4cccc(c34)C2=O)no1 | inconclusive: 5.62 µM [quencher, side channel, full curve]
CC(C)CN(C(=O)COC(=O)c1cc2ccccc2oc1=O)C1CCS(=O)(=O)C1 (stereo not given) | inconclusive: 14.1 µM [quencher, side channel, partial curve]
